PubChem BioAssay AID504339 (National Center for Advancing Translational Sciences (NCATS), 2011)
Hit rate of the full screen: of about 390,000 compounds, about 17,000 (4.4%) were called active. Inconclusive means that the source gave no clear call. Such entries were picked first, then a sample of the others. The call rests on the fitted dose curve; in most records, active means well fitted inhibition curve with a large enough effect; inconclusive means small, poorly fitted or top-dose-only effect; inactive means no such curve, though single readings can be large or run the other way. Where the call is inconclusive, the potency comes from a doubtful curve fit.

What follows are molecules tested against Lysine-specific demethylase 4A (Homo sapiens) (UniProt O75164) (assay: qHTS Assay for Inhibitors of JMJD2A-Tudor Domain). Conditions: AlphaScreen JMJD2A-Tudor / H3K4me3 peptide binding; activity change, negative = inhibition: at 114 µM (top of the series).
Further: nearly all actives have a fitted effect of over 50% in size.
On the % scale 0 is the no-effect control and ±100 the full control effect; potency means the concentration at half of the fitted maximal effect; tags describe the fitted curve by direction and shape.

UniProt O75164, sequence (O75164 whole entry, looked up, the tested form may be a part): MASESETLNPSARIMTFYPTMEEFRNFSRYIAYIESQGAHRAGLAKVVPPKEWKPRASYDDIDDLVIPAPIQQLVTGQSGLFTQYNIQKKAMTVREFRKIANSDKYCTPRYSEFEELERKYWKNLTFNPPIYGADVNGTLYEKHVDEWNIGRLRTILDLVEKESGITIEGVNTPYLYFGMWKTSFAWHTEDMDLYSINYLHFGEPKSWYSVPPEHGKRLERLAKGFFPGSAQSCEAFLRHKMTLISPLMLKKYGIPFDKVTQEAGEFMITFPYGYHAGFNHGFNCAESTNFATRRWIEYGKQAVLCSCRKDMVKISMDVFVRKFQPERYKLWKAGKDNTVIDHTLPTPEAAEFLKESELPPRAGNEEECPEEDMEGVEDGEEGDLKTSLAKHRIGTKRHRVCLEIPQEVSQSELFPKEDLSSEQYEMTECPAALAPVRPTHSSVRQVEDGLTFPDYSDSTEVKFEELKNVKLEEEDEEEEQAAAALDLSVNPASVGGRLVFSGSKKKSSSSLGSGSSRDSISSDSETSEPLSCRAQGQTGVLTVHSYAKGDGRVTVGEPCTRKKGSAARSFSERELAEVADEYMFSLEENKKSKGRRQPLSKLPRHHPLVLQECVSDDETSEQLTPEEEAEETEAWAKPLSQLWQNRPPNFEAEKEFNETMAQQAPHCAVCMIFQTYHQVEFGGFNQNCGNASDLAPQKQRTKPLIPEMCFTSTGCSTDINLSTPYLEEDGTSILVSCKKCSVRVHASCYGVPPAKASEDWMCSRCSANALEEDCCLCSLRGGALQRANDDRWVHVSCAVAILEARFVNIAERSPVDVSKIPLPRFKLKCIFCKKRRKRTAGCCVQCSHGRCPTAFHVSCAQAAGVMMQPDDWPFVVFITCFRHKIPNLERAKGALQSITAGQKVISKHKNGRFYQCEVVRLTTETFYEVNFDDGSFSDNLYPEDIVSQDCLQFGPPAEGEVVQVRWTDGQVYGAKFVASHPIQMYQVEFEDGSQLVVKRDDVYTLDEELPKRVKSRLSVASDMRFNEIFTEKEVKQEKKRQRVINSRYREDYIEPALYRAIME

SMILES | Potency | activity change, negative = inhibition
Cn1c(=O)c2c([nH]c(=S)n2CCCc2ccccc2)n(C)c1=O | active: 5.01 µM | 
COC(=O)c1ccc(N2CCN(S(=O)(=O)c3ccc(Br)cc3)CC2)c([N+](=O)[O-])c1 | inconclusive: 2.82 µM [inhibitor, full curve, poor fit] | 
Cc1ccc(-c2[nH]ncc2CN2CCN(C(=O)c3cccs3)CC2)cc1C | inconclusive: 4.47 µM [inhibitor, single point] | 
Cn1c(=O)c(C(=O)Nc2ccccn2)c(O)c2ccccc21 | inconclusive: 28.2 µM [inhibitor, single point] | 
CCc1ccc(-c2cc(C(=O)NN3CCOCC3)c3ccccc3n2)s1 |  | inactive: 1.37%
Cc1ccc(C)c(Cn2c(=O)n(CCCCC(=O)NCc3ccc4c(c3)OCO4)c(=O)c3ccccc32)c1 |  | inactive: -9.9%
COc1cc2[nH]c(=O)n(CCCC(=O)N3CC=C(c4ccccc4)CC3)c(=O)c2cc1OC |  | inactive: -18.9% [at 57.1 µM]
Cc1onc(-c2c(Cl)cccc2Cl)c1C(=O)N1C(C)CCCC1C (configuration not stated) |  | inactive: -3.45%
CCC(CO)Oc1cc(NCc2ccc(C(F)(F)F)cc2)c2ncn(C(C)C)c2c1 (configuration not stated) | inconclusive: 25.1 µM [inhibitor, single point] | 
COc1ccc(C(=O)CSc2nnc(CCc3ccccc3)n2-c2ccccc2)cc1 | active: 56.2 µM | 
Cc1ccc(CN2C(=O)S/C(=C\c3ccccc3OCC(=O)O)C2=O)cc1 |  | inactive: -23.2%
CC(=O)OC1COC(N2CCc3ccccc32)C(OC(C)=O)C1OC(C)=O (configuration not stated) | inconclusive: 50.1 µM [inhibitor, partial curve] | 
CCOC(=O)CSc1ccc(C(=O)Nc2ccc(Cl)cc2)cn1 |  | inactive: 4.2%
O=C(Cc1ccc(F)cc1)Nc1ccc(S(=O)(=O)N2CCCC2)cc1 |  | inactive: -4.08%
COc1ccc(/C=N/N(c2ccccc2)c2ccccc2)cc1O | inconclusive: 44.7 µM [inhibitor, partial curve] | 
CCOc1ccc(NC(=O)CN(C)C(=O)CCCc2c[nH]c3ccccc23)cc1OCC | inconclusive: 50.1 µM [inhibitor, partial curve] | 
CC1=C(C(=O)NCc2cccc(F)c2)C2(CCCCC2)OC1=O |  | inactive: -6.6%
COc1ccc(CCn2c(S)nc3ccccc3c2=O)cc1 |  | inactive: 6.05%
S=c1nc[nH]c2c1ncn2C1CCCO1 (configuration not stated) | active: 2 µM | 
N#C/C(=C\c1ccc(OCc2ccc(Cl)cc2)cc1)C(=O)Nc1cccc(C(=O)O)c1 | inconclusive: 35.5 µM [inhibitor, full curve] | 
O=C(COc1ccc(F)cc1)Nc1nc(-c2ccccn2)cs1 | active: 79.4 µM | 
Oc1c(Br)cc(/C=N/n2c(-c3ccccc3)n[nH]c2=S)c(O)c1Br | active: 3.98 µM | 
O=C(NCCCN1CCCCCC1)C1CC(=O)N(CCc2ccccc2)C1 (configuration not stated) | inconclusive: 89.1 µM [inhibitor, single point] | 
CC(=O)c1cnc2nc(SCc3ccc(Cl)cc3)nn2c1C |  | inactive: -5.04%

SMILES | Potency | activity change, negative = inhibition
O=C(/C=C/c1ccco1)Nc1ccc2c(c1)OCO2 | inconclusive: 79.4 µM [inhibitor, partial curve] | 
CCc1cccc(C)c1NC(=O)Cn1nc(C)n2cccc2c1=O | inactive | 
COc1ccc(C2c3c(N)nc(Cc4ccccc4)nc3Oc3ccc4ccccc4c32)cc1OC (configuration not stated) | inconclusive: 56.2 µM [inhibitor, partial curve] | 
COc1ccc(C(=O)Nc2ccc(N(C)Cc3ccccc3)c(C(=O)O)c2)cc1 | inconclusive: 89.1 µM [inhibitor, single point] | 
Cc1ccc2nc(N(CCN(C)C)C(=O)c3ccc4c(c3)OCCO4)sc2c1 | inconclusive: 56.2 µM [inhibitor, partial curve] | 
O=c1[nH]c(=O)c2[nH]c(=S)[nH]c2[nH]1 | active: 2.51 µM | 
CCOC(=O)C1=C(C)N(c2ccccc2)C(=O)/C1=C\c1cccs1 | inconclusive: 11.2 µM [inhibitor, full curve] | 
COC(=O)c1cc(NC(=O)c2cc(-c3ccc(OC)cc3)oc2C(F)(F)F)ccc1N1CCOCC1 | inconclusive: 17.8 µM [inhibitor, full curve] | 
Cc1csc(NC(=O)c2cn3ccccc3n2)n1 | inconclusive: 2 µM [inhibitor, partial curve, poor fit] | 
CCOC(=O)C1=C(CN2CCN(c3ccccc3OC)CC2)NC(=O)NC1c1ccccc1 (configuration not stated) | inconclusive: 79.4 µM [inhibitor, partial curve] | 
C=CCOC(=O)C1=C(C)NC(C)=C(C(=O)OCC=C)C1c1ccc(C)o1 | inconclusive: 89.1 µM [inhibitor, partial curve] | 
CCn1nc(C(=O)OCC(=O)NCC(C)C)c2ccccc2c1=O |  | inactive: -11.6%
COC(=O)c1sc2nc(CN3CCN(c4cccc(C(F)(F)F)c4)CC3)[nH]c(=O)c2c1C |  | inactive: -11.1%
O=C(CCC1CCCN(Cc2cccc3c2OCO3)C1)NCc1ccc(F)c(F)c1 (configuration not stated) |  | inactive: -6.87%
CC(=O)c1c(O)cc(=O)oc1-c1ccc(C)cc1 | inconclusive: 25.1 µM [inhibitor, single point] | 
Cc1oc(-c2ccccc2Cl)nc1CS(=O)(=O)CC(=O)NCc1ccc(F)cc1 |  | inactive: -5.96%
Cc1ccccc1OCC(O)CN1CCN(c2ccc(Cl)cc2)CC1 (configuration not stated) | inconclusive: 56.2 µM [inhibitor, partial curve] | 
Cc1ccc(NC(=O)C2(c3ccccc3)CCOCC2)c([N+](=O)[O-])c1 | inconclusive: 28.2 µM [inhibitor, full curve] | 
CC1=NN(C(N)=S)C(=O)C1N=Nc1c(C)n(C)n(-c2ccccc2)c1=O (configuration not stated) | inconclusive: 56.2 µM [inhibitor, partial curve] | 
O=[N+]([O-])c1ccccc1/C=C/C=N/Nc1ccc(S(=O)(=O)Nc2ccc(Cl)cc2)cc1[N+](=O)[O-] | inconclusive: 2.51 µM [inhibitor, full curve] | 
Cc1nc(SCC(=O)Nc2cc(C(N)=O)cc(C(N)=O)c2)c2c(C)c(C)sc2n1 | inconclusive: 100 µM [inhibitor, single point] | 
Cc1ccc2occ(/C=C/C(=O)O)c(=O)c2c1 |  | inactive: 3.94% [at 57.1 µM]
CCn1cc([N+](=O)[O-])c(C(=O)N2N=C(c3cccc4ccccc34)CC2c2ccccc2O)n1 (configuration not stated) | inconclusive: 50.1 µM [inhibitor, partial curve] | 
CCCc1nnc(NC(=O)c2nc(SCC)ncc2Cl)s1 | inconclusive: 89.1 µM [inhibitor, partial curve, poor fit] | 

SMILES | Potency | activity change, negative = inhibition
Cc1cc(C)c(C#N)c(=N)o1 | active: 79.4 µM | 
CCOC(=O)C1=C(CS(=O)(=O)c2ccc(F)c(C)c2)NC(=O)NC1c1ccccc1OC (configuration not stated) |  | inactive: -21.2%
CSCCC(NC(=O)c1ccc(Cl)cc1Cl)C(=O)N1CC(C)OC(C)C1 (configuration not stated) |  | inactive: -12.3%
CCC1CN(C(=O)N2CCC(C(=O)Nc3ccccc3OC)CC2)c2ccccc2O1 (configuration not stated) | inconclusive: 15.8 µM [inhibitor, full curve] | 
CCOC(=O)CNC(=O)N1CCCN(S(=O)(=O)c2ccc3c(ccn3CC)c2)CC1 |  | inactive: -21.1%
CCc1c(C)sc(NC(=O)C2CCCCC2C(=O)O)c1C(N)=O (configuration not stated) | inconclusive: 79.4 µM [inhibitor, partial curve] | 
COc1ccc(Cl)cc1C=CC=Nc1ccc(S(N)(=O)=O)cc1 | inconclusive: 2.82 µM [inhibitor, full curve, poor fit] | 
CCn1c(SCC(=O)N/N=C/c2c[nH]c3ccccc23)nnc1-c1ccc(C)cc1 | inconclusive: 39.8 µM [inhibitor, single point] | 
Cc1cccc(C)c1Nc1c(-c2ccccn2)nc2c(C)cccn12 | active: 10 µM | 
O=C1C=C(c2ccnc3cc(Cl)ccc23)C[C@@H](c2ccc3c(c2)OCO3)C1 | inconclusive: 44.7 µM [inhibitor, partial curve] | 
COc1ccc(CCNC(=O)c2nc(-c3ccc(Cl)cc3)n3c2CCCCC3)c(OC)c1 | active: 17.8 µM | 
CCOc1ccc(-c2ccc(/C=C3/C(=N)N4C(C)=CSC4=NC3=O)o2)c([N+](=O)[O-])c1 | inconclusive: 35.5 µM [inhibitor, partial curve] | 
COc1cc2cnc(-c3ccccc3)c(C(=O)c3ccc(F)cc3)c2cc1OC | inconclusive: 79.4 µM [inhibitor, partial curve, poor fit] | 
Cc1cccc(C)c1NC(=O)CSC(=S)N1CCCC1 |  | inactive: 0%
Cc1ccccc1Nc1nnc(SCC(=O)NC(=O)NCc2ccco2)s1 | inconclusive: 63.1 µM [inhibitor, partial curve] | 
O=C(NCC(c1cccs1)N1CCOCC1)c1ccccc1NS(=O)(=O)c1ccc(Cl)c([N+](=O)[O-])c1 (configuration not stated) |  | inactive: -32.4%
CC1=C(C(=O)OC2CCCCCCC2)C(c2cccc(O)c2)NC(=O)N1 (configuration not stated) | inconclusive: 50.1 µM [inhibitor, partial curve] | 
Clc1ccc(/C=N\Nc2ccccc2)cc1 | inconclusive: 56.2 µM [inhibitor, partial curve] | 
Cc1oc(-c2ccc(C(=O)NCc3ccccc3)cc2)nc1CN1CCc2ccccc21 | inconclusive: 22.4 µM [inhibitor, full curve] | 
CCCc1ccc(O)c(N=Cc2cc(Br)cc(OCC)c2O)c1 | inconclusive: 44.7 µM [inhibitor, partial curve] | 
CSc1cccc(NC(=O)Nc2ccccc2OCc2cc(=O)n3cc(C)ccc3n2)c1 |  | inactive: -10.1%
O=C(c1cc2ccccc2oc1=O)N(Cc1ccc2c(c1)OCO2)Cc1ccco1 | inconclusive: 39.8 µM [inhibitor, full curve, poor fit] | 
COC(c1ccccc1)c1nnc(CCC(=O)N2CCCCCCC2)o1 (configuration not stated) |  | inactive: -19.1%
CCN(CC)CCCN=C1N[C@@H](c2cccc(F)c2)C(C(=O)OC)=C(C)N1Cc1ccccc1 | inconclusive: 15.8 µM [inhibitor, partial curve, poor fit] | 
